Out of some 410,000 compounds screened, about 530 (0.13%) were called active. The inconclusive results got no clear call from the source; some entries with a clear call stand among them for comparison. Calls come from the whole dose curve; as a rule, active = well fitted inhibition curve with a large enough effect; inconclusive = small, poorly fitted or top-dose-only effect, or another doubt; inactive = no such curve, though single readings can be large or run the other way. Potencies of inconclusive entries are doubtful fits and often do not repeat.
experiment: qHTS of GLP-1 Receptor Inverse Agonists: Cytotox Screen; conditions: HEK293 cAMP-luciferase reporter cells, luminescence, 24 h; series mostly up to 38.3 µM
Method in brief: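 Cells in DMEM/10% Nu serum/1% pen-strep, 1536-well format. Pre-incubated 12 h, dosed with 23 nL compound, incubated a further 24 h. Luciferase detection, 12 min at room temp, luminescence.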
Potency is the fitted concentration of half-maximal effect.

Row | Structure (SMILES) | Potency
1 | NC(=O)c1nc(Nc2ccccc2)sc1NC(=O)c1ccccc1Br | inactive
2 | CCC(CO)NCC#Cc1ccccc1 (stereo not drawn) | inconclusive: 11.2 µM [inhibitor, single point]
3 | Cc1ccc(OCCCCNC2CCCC(C)C2C)c(C)c1 (stereo not drawn) | inconclusive: 28.2 µM [inhibitor, single point]
4 | Cc1ccc(Cl)cc1NC(=S)N(Cc1ccco1)C(C)c1cccs1 (stereo not drawn) | inconclusive: 20 µM [inhibitor, single point]
5 | Cc1ccc(NC(=O)Cn2ncc(Cl)c(Cl)c2=O)cc1S(=O)(=O)N1CCCCC1 | inconclusive: 11.2 µM [inhibitor, partial curve, poor fit]
6 | COc1ccc(OC)c(NS(=O)(=O)c2ccc(-c3cc(C)no3)s2)c1 | inconclusive: 2.24 µM [inhibitor, full curve, poor fit]
7 | CCOC(=O)C1=C(N)Oc2ccc3ccccc3c2C1c1ccc(O)cc1 (stereo not drawn) | inactive
8 | CCCCCCCCCCCCCCCC[N+](C)(C)CCl | inconclusive: 28.2 µM [inhibitor, single point]
9 | COc1ccc(NC(=O)c2ccco2)c2ccccc12 | inconclusive: 1 µM [inhibitor, full curve, poor fit]
10 | CCOc1ccc(N2Cc3ccccc3C2)cc1 | inconclusive: 14.1 µM [inhibitor, partial curve, poor fit]
11 | c1ccc(CSc2nc3ncccc3[nH]2)cc1 | inactive
12 | Cc1cc(Nc2ccc(Cl)cc2)nc(NCc2ccccc2)n1 | inconclusive: 28.2 µM [inhibitor, single point]
13 | CS(=O)(=O)N1CCN(c2ccc([N+](=O)[O-])cc2F)CC1 | inactive
14 | COc1cc2c(cc1NC(=S)Nc1cccc3ccccc13)oc1ccccc12 | inactive
15 | CCOC(=O)c1c(C)[nH]c(C)c1S(=O)(=O)N1CCN(c2cccc(C(F)(F)F)c2)CC1 | inconclusive: 10 µM [inhibitor, partial curve]
16 | CCC1C/C(=C\c2cccnc2)C(=O)/C(=C/c2cccnc2)C1 (stereo not drawn) | inconclusive: 4.47 µM [inhibitor, partial curve]
17 | COc1ccc(/C=N\NC(=O)c2c(C)nc3ccc(Br)cn23)cc1 | inconclusive: 0.708 µM [inhibitor, full curve, poor fit]
18 | N#C/C(=C\C1=C(N2CCOCC2)C(=C\c2ccccc2)/CC1)C(=O)Nc1ccccc1F | inconclusive: 0.501 µM [inhibitor, full curve, poor fit]
19 | CCN1CCN(CCNC(=O)c2ccc3c(c2)N(Cc2ccc(F)cc2)C(=O)/C(=C/c2ccccc2)S3)CC1 | inconclusive: 28.2 µM [inhibitor, single point]
20 | O=C1C=CC(=Nc2ccc(F)cc2)O1 | inactive
21 | COc1ccc(Cn2c(=S)[nH]c3ccccc32)cc1 | inconclusive: 12.6 µM [inhibitor, single point]
22 | COc1ccc(N(CC(=O)Nc2cc(Cl)ccc2C)S(=O)(=O)c2c(C)n[nH]c2C)cc1 | inconclusive: 7.94 µM [inhibitor, partial curve, poor fit]

Row | Structure (SMILES) | Potency
23 | COc1cc(NC(=S)N(C)CCC#N)c(OC)cc1Cl | inconclusive: 2.82 µM [inhibitor, full curve, poor fit]
24 | O=C(NC(Cc1c[nH]c2ccccc12)C(=O)Nc1ccc(OC(F)(F)F)cc1)c1cccs1 (stereo not drawn) | inconclusive: 22.4 µM [inhibitor, single point]
25 | Cc1cccc(CS(=O)(=O)c2ncc(Cl)c(C(=O)Nc3c(C)cccc3C)n2)c1 | inconclusive: 10 µM [inhibitor, partial curve, poor fit]
26 | O=C(CSc1nnc(SCc2ccc(F)cc2)s1)Nc1ccc(C(=O)O)cc1 | inconclusive: 28.2 µM [inhibitor, single point]
27 | Cc1nn(C(C)C(=O)N2CCN(c3ccc(Cl)cc3)CC2)c(=O)c2cc3occc3n12 (stereo not drawn) | inactive
28 | COc1cc(/C=C2/C(=O)CNC2=O)ccc1O | inconclusive: 0.631 µM [inhibitor, full curve]
29 | O=C1CSC(=S)N1Nc1ccccc1 | inconclusive: 11.2 µM [inhibitor, single point]
30 | Cc1ccc2c(c1)c(=O)c(C(=O)c1ccc3c(c1)OCO3)cn2Cc1ccc(Cl)cc1 | inactive
31 | Cc1c(Cl)cccc1NC(=S)NCCC(c1ccccc1)c1ccccc1 | inconclusive: 28.2 µM [inhibitor, single point]
32 | Cc1ccc(C2=Nc3ccccc3N=C(C(Cl)Cl)C2)cc1 | inactive
33 | COc1cc(C(=O)NC(c2ccc(Cl)cc2)c2cc(Cl)c3cccnc3c2O)cc(OC)c1OC (stereo not drawn) | inactive
34 | O=C(NNC(=S)Nc1ccccc1)c1cccnc1 | inconclusive: 22.4 µM [inhibitor, single point]
35 | Cc1cc(C)nc(NC(N)=NCCc2c[nH]c3ccccc23)n1 | inconclusive: 7.94 µM [inhibitor, partial curve, poor fit]
36 | C#CCN(C[C@@H]1[C@@H](OC(=O)NC2CCCC2)[C@@H](OC(=O)NC2CCCC2)Cn2c(=O)ccc(=O)n21)S(=O)(=O)c1ccc(C)cc1 | inconclusive: 10 µM [inhibitor, partial curve]
37 | O=c1c(/C=N/OCc2ccc(Cl)cc2Cl)c[nH]n1-c1cccc(Cl)n1 | inactive
38 | CC1=CC(C)(C)Nc2ccccc21 | inactive
39 | COc1ccc2c(c1)-c1c(ssc1=S)C(C)(C)N2C(=O)CSC1=NCCS1 | inconclusive: 12.6 µM [inhibitor, single point]
40 | CCN1CCN(CCCNC(=O)c2ccc3c(Cl)c4c(nc3c2)CCCC4)CC1 | inconclusive: 10 µM [inhibitor, single point]
41 | COCCn1c(C23CC4CC(CC(C4)C2)C3)n[nH]c1=S | inconclusive: 14.1 µM [inhibitor, single point]
42 | CCCCN1C(=O)/C(=C2/C=CC=CN2C)SC1=S | inconclusive: 28.2 µM [inhibitor, single point]
43 | COc1cccc(/C=C2\SC(=O)N(CC(=O)NC3C=CS(=O)(=O)C3)C2=O)c1 (stereo not drawn) | inconclusive: 12.6 µM [inhibitor, single point]
